# Source: the supplement of paper PMC12217912
# This is one part of the list. Sequences were assembled here from the parent chain. Inactive controls read about 0.05.
# B1: TEV protease; numbered along this chain (parent)
# chain: MGESLFKGPRDYNPISSSICHLTNESDGHTTSLYGIGFGPFIITNKHLFRRNNGTLVVQSLHGVFKVKDTTTLQQHLVDGRDMIIIRMPKDFPPFPQKLKFREPQREERICLVTTNFQTKSMSSMVSDTSCTFPSGDGIFWKHWIQTKDGQCGSPLVSTRDGFIVGIHSASNFTNTNNYFTSVPKNFMELLTNQEAQQWVSGWRLNADSVLWGGHKVFMVKPEEPFQPVKEATQL
# Variants of: B1
# Assay: raw area under fraction-flipped curve 0-4 h after induction (AUC4h, not background-subtracted), DNA-recorder readout of cleavage of the substrate (dimensionless); higher = more cleavage of the substrate by the protease variant
# Conditions: temperature: 34 °C; time window: 0-4 h after rhamnose induction
# Method: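 In vivo DNA recorder in E. coli TOP10(DE3) ΔrhaA at 34 °C. Each TEVp single-site mutant (parent TEVp 0) is paired with a single-site variant of the 7-mer TEVs (canonical ENLYFQ|S). The substrate sits between flexible linkers in a Bxb1-sfGFP-TEVs-SsrA fusion, so cleavage stabilises Bxb1 and speeds flipping of a recombination array, read by NGS. The value is the raw area under the fraction-flipped curve over 0-4 h after rhamnose induction (AUC4h), with ≥20 reads per time point. It is not background-subtracted; inactive controls average about 0.047.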
# 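Note: Bxb1 expression induced with 0.2% (w/v) L-rhamnose at OD600 near 0.5, cultures sampled hourly, flipped fraction per protease–substrate barcode pair counted by paired-end Illumina sequencing.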
Variant,area with substrate ENLCFQS,area with substrate ENLDFQS,area with substrate ENLFFQS,area with substrate ENLGFQS,area with substrate ENLHFQS,area with substrate ENLLFQS,area with substrate ENLMFQS,area with substrate ENLIFQS,area with substrate ENLKFQS,area with substrate ENLNFQS,area with substrate ENLQFQS,area with substrate ENLRFQS,area with substrate ENLWFQS,area with substrate ENLAFQS,area with substrate ENLEFQS,area with substrate ENLPFQS,area with substrate ENLSFQS,area with substrate ENLTFQS,area with substrate ENLVFQS
K7E,0.0653,0.0678,0.114,0.0559,0.0731,0.0675,0.0646,,,,,,,,,,,,
K7I,0.069,,,,,,,0.0784,0.0782,0.0673,0.107,0.0675,0.0666,,,,,,
N193W,,,,,,,0.064,,0.0663,0.0505,,0.0707,,0.0702,0.06,0.0698,0.0471,,
N193E,0.0689,,0.0927,0.07,0.078,,,0.0662,0.081,0.0737,0.0694,0.0675,0.0538,0.0465,,0.0485,,,
L191V,,0.0698,0.0669,,0.0617,0.0784,0.0665,0.0712,0.0742,0.0766,0.0656,,0.0687,0.0588,,0.0778,0.058,0.0548,
G202E,0.0546,0.0514,0.065,,0.0728,0.0525,0.0388,0.0704,0.0627,0.0487,0.0483,0.0504,0.0633,0.0622,0.0716,0.0425,0.057,,0.0599
W203K,,0.0612,0.0612,,,0.0532,,,0.0601,0.0581,0.0624,0.0567,0.0575,0.0596,0.0586,0.0683,0.043,,
F226S,,0.0619,0.0933,0.0479,0.0651,0.0652,,0.096,,0.0618,0.0763,0.0751,0.0731,0.0578,0.064,0.0558,,,0.092
K221M,,0.0651,0.0759,,0.0676,0.073,0.0684,0.0878,0.0804,,,0.0782,0.0631,0.0391,,0.0488,0.0497,,0.0862
K221C,,0.067,0.0796,0.0648,0.0518,0.0687,0.0853,0.0739,0.0793,0.0687,0.0603,0.0665,,0.0577,0.0516,0.049,0.0589,,0.0813
T233C,0.0652,0.0604,0.0727,,0.0789,0.0721,,0.0842,,0.0719,0.0754,0.0638,0.0639,0.072,0.0711,0.0641,0.0563,0.095,
L205D,0.0738,,0.0691,,0.0648,0.0755,,,0.0664,,,,0.0455,0.0648,,0.055,0.0496,,
L205R,,0.0829,0.0682,,0.0809,0.0609,,,,0.0609,,0.0423,,0.0624,0.0324,0.0403,,,0.0573
L205A,,0.0624,0.0669,,,0.061,,0.0705,0.0718,0.0536,0.0579,,0.0449,0.0544,0.0695,,0.0169,,
A207D,0.079,0.0616,0.0758,,0.0696,0.0593,0.0639,0.0766,0.0825,0.0734,0.0666,0.0611,,0.0625,0.0564,,0.0579,0.0644,0.0776
A207L,0.0554,,0.0726,,,,,0.102,0.0555,,,0.0529,0.0692,0.0524,,,0.0517,,0.0741
V220Y,,,0.0799,,0.0705,,,,0.0587,0.0736,0.0719,0.0669,,0.0383,0.0671,0.0529,0.0707,,
V220L,,0.0649,0.0777,0.0714,,0.071,,0.0792,0.0719,0.0694,0.0639,,0.05,0.0547,0.0678,0.0518,0.0586,0.0846,0.0748
F41K,0.0401,0.0279,0.0684,,0.0449,0.0502,0.0458,,0.0491,0.0554,0.0625,0.0557,0.0078,,0.0539,0.0533,,,0.0399
S16P,0.0542,0.0575,0.0695,,0.0659,0.0637,0.0676,0.0948,0.0764,0.0743,0.0789,,0.0625,,0.0573,0.0607,,,0.087
P222R,0.0751,0.0572,0.0875,0.0693,0.0644,,0.0752,,0.0778,0.0588,0.0638,,,0.0795,0.0851,0.0579,0.0576,,0.0787
M188D,0.0858,0.0531,0.117,0.0673,0.0681,0.0627,0.0495,0.0902,0.0844,0.0604,,0.0569,,0.0623,0.0592,0.0569,0.0522,,0.0867
I15V,0.0694,0.0665,0.0987,0.0727,0.0726,0.0706,0.0796,,0.0851,0.0646,0.0785,0.0601,0.072,,,0.0634,0.0534,,0.0942
A196R,,,,,,,,,0.0836,,,,0.0455,0.0894,,,0.0443,,0.0799
A196Y,,0.056,0.0988,,0.0882,0.0607,0.0855,,,,0.105,0.0714,0.0739,0.0628,,,,0.0654,0.1
A196T,0.0697,0.0492,0.0813,0.0739,,0.078,,0.0736,,0.0558,0.0712,0.061,0.0609,0.0744,0.0681,0.0717,0.0562,,0.078
S201Y,,0.0509,0.0825,,0.0618,0.0361,,,0.0783,0.0681,,0.0781,0.0666,0.0444,,0.0589,,,0.0786
S201V,,0.0601,0.0899,,0.0726,0.0619,,,,,0.0879,0.078,,0.0608,0.0702,0.0552,0.0664,,0.0952
